Holding throughout (assay): growth of human tumour cells (NCI), 48 h
Experiment [1] deals with A498 renal.
Experiment [2] has as its system ACHN renal.
Experiment [3] has as its system RXF 393 renal.
For experiment [4], the system named is DU-145 prostate.
In experiment [5] the test system is HCT-15 colon.
In experiment [6] the test system is HOP-92 NSCLC.
Experiment [7] concerns LOX IMVI melanoma.
The subject of experiment [8] is MDA-MB-435.
Experiment [9] deals with MOLT-4 leukemia.
Experiment [10] has as its system NCI-H23 lung.
The test system of experiment [11] is OVCAR-8 ovarian.
Experiment [12] relates to RPMI-8226 leukemia.
For experiment [13], the system named is SF-295 CNS.
In experiment [14] the test system is HOP-62 NSCLC.
Experiment [15] deals with EKVX NSCLC.
Experiment [16] relates to OVCAR-3 ovarian.
For experiment [17], the system named is SK-MEL-2 melanoma.
The subject of experiment [18] is UACC-257 melanoma.
For experiment [19], the system named is DLD-1 colon.
The test system of experiment [20] is NCI-H460 lung.
Experiment [21] concerns SF-268 CNS.
Experiment [22] deals with SK-OV-3 ovarian.
Experiment [23] relates to COLO 205 colon.
Experiment [24] has as its system HCC-2998 colon.
Experiment [25] deals with M14 melanoma.
The test system of experiment [26] is MDA-MB-231 breast.
The subject of experiment [27] is NCI-H226 lung.
Experiment [28] concerns PC-3 prostate.

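A five-concentration, 48-hour dose response in 96-well plates underlies each endpoint, interpolated linearly between surrounding concentrations. GI50: concentration for 50% inhibition of growth.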 Certain results were filed several times, with different values. This list holds those alone. The source may hold further records. For part of these data: The tests behind the records often covered other concentration ranges, which the source does not state; a value can be the end of its range. For part of these data: The records of an entry repeat one measurement (runs, samples, wells, individuals or studies). What stands in brackets tells the records apart. A, B and so on number the origins entry by entry.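 At the TGI there is no net growth.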

Take `Cc1cnc(NC(=O)Nc2cc(Br)c(C)cc2OC[C@@H]2CNCCO2)cn1`: the TGI is 6.44 µM [sample A, 1 test] and 522 nM [sample B, mean of 2 tests] in [1]; > 10 µM [sample A, 1 test] and 741 nM [sample B, mean of 2 tests] in experiment [2]; 7.4 µM [sample A, 1 test] and 591 nM [sample B, mean of 2 tests] in [3].

As to `COc1cccc(-c2cc(=O)c3cc(OC)ccc3[nH]2)c1`, the TGI in [4] was 7.98 µM and > 100 µM; in experiment [5], 2.07 µM and > 100 µM; in experiment [6], 5.56 µM and > 100 µM; in experiment [7], 2.99 µM and 44.4 µM; in experiment [8], 736 nM and > 100 µM; in experiment [9] it was 7.79 µM and 245 nM. Besides, the TGI is 1.07 µM and > 100 µM in experiment [10]; 1.84 µM and > 100 µM in experiment [11]; 3.89 µM and 165 nM in experiment [12]; 462 nM and 41.7 µM in experiment [13]. The GI50 in experiment [8] was 128 nM and 39.8 µM.

On to `CC(=O)OCC1OC(n2c(-c3ccc(Cl)cc3)ccc(C#N)c2=S)C(OC(C)=O)C(OC(C)=O)C1OC(C)=O` (stereo unspecified), for which, in experiment [14], the GI50 was 8.77 µM [sample A, mean of 2 tests] and > 100 µM [sample B, 1 test].

As to `CN[C@H]1C=C[C@@H]2/C=C(C)/C=C/[C@@H](C)[C@H]([C@H](C)[C@H](O)[C@@H](C)NC(C)=O)OC(=O)/C=C/C=C(C)\C=C\[C@]2(C)C1`, the GI50 is 228 nM and 18.3 nM in [4]; 49.8 nM and 1.78 µM in experiment [15]; 3.58 µM and 47.3 nM in experiment [16]; 44.5 nM and 5.01 µM in experiment [17]; 71.5 nM and 4.9 nM in [18]. For the same molecule, the TGI in [13] is 37.1 nM and 7.67 µM.

Regarding `COc1cc2c(c(OC)c1OC)-c1ccc(SC)c(=O)cc1[C@@H](NCc1ccc(C#N)cc1)CC2`, the TGI in experiment [1] is 63.8 nM and 44.8 µM; in [19] it was 294 nM and > 100 µM; in experiment [20], 33.7 nM and 14.2 µM; in experiment [11], 21.8 nM and > 100 µM; in experiment [21], 59.4 nM and > 100 µM; in [22], 21.7 nM and 857 nM.

In the case of `FC(F)c1nc2ccccc2n1-c1nc(N2CCOCC2)nc(N2CCOCC2)n1`, the TGI in experiment [23] was 2.65 µM [sample A, mean of 2 tests] and > 100 µM [sample B, mean of 2 tests]; in experiment [24], 5.79 µM [sample A, mean of 2 tests] and > 100 µM [sample B, mean of 2 tests]; in [7], 3.19 µM [sample A, mean of 2 tests] and > 100 µM [sample B, mean of 2 tests]; in experiment [25] it was 5.62 µM [sample A, mean of 2 tests] and > 100 µM [sample B, mean of 2 tests]; in experiment [26], 7.34 µM [sample A, mean of 2 tests] and > 89.9 µM [sample B, mean of 2 tests]; in experiment [8] it was 3.85 µM [sample A, mean of 2 tests] and > 100 µM [sample B, mean of 2 tests]. Also, the TGI was 3.38 µM [sample A, mean of 2 tests] and > 100 µM [sample B, 1 test] in experiment [27]; 8.92 µM [sample A, mean of 2 tests] and > 100 µM [sample B, mean of 2 tests] in experiment [10]; 2.41 µM [sample A, mean of 2 tests] and > 100 µM [sample B, mean of 2 tests] in experiment [28].

The values are drawn from PubChem BioAssay (NCI).
